From the GPR68 mutational scans of Howard et al. (2025)
The least precise scores are not listed. Not listed are two conditions whose scores span a narrow range. Names with del lack the residues named; names with ins carry added residues between the positions named. For part of these data: The data file names ogerin without a concentration.

B1: GPR68, Q15743 (parent)
chain: MGNITADNSSMSCTIDHTIHQTLAPVVYVTVLVVGFPANCLSLYFGYLQIKARNELGVYLCNLTVADLFYICSLPFWLQYVLQHDNWSHGDLSCQVCGILLYENIYISVGFLCCISVDRYLAVAHPFRFHQFRTLKAAVGVSVVIWAKELLTSIYFLMHEEVIEDENQHRVCFEHYPIQAWQRAINYYRFLVGFLFPICLLLASYQGILRAVRRSHGTQKSRKDQIQRLVLSTVVIFLACFLPYHVLLLVRSVWEASCDFAKGVFNAYHFSLLLTSFNCVADPVLYCFVSETTHRDLARLRGACLAFLTCSRTGRAREAYPLGAPEASGKSGAQGEEPELLTKLHPAFQTPNSPGSGGFPTGRLA

Columns and labels:
[1] = variants of: B1; experiment: cAMP reporter score (Enrich2 score, wild type = 0); higher = more signal; HEK293T, FACS bins
[2] = variants of: B1; experiment: surface expression score (Enrich2 score, wild type = 0); higher = more signal; HEK293T, FACS bins

Variant	cAMP reporter score ([1]; pH 5.5)	cAMP reporter score ([1]; pH 6)	cAMP reporter score ([1]; pH 6, modulator: ogerin)	cAMP reporter score ([1]; pH 6.5, modulator: ogerin)	surface expression score [2]
N278H	-1.48	-0.722	-1.38	-1.18	0.934
N278I	-1.12	-1.54	-1.79	-1.34	-0.564
N278K	-1.56	-0.852	-2.35	-1.79	1.2
N278L	-0.987	-0.274	-0.696	-0.349	-1.63
N278M	-1.05	-0.898	-0.827	-0.997	-1.87
N278P	-0.196	0.139	-0.52	-0.16	-0.532
N278Q	-0.109	-0.713	-0.33	-0.66	-0.435
N278R	-1.84	–	–	-1.39	0.859
N278S	-0.898	–	-2.32	-0.905	0.927
N278V	-1.07	-1.38	-1.65	-0.968	0.197
N278W	-0.732	-0.642	-1.88	-1.37	-2.33
N278Y	-2.27	-1.23	-1.28	-1.76	-1.15
N278_C279del	-1.85	-1.1	-2.07	-0.527	-1.85
N278_C279insG	-1.53	-0.927	-2.04	-1.45	-2.82
N278_C279insGSG	-1.32	-0.594	-1.52	-1.02	-2.63
N278del	-1.22	-0.784	-1.47	-0.989	-2.17
C279del	-1.19	-0.748	-1.25	-1.21	-2.82
V280_A281del	-1.34	0.096	–	0.177	-1.11
V280_A281insGS	-0.977	-0.89	–	-0.786	-2.5
V280del	-1.37	-0.183	-1.65	-0.672	-3.2
A281_D282del	-1.45	-1.11	-1.55	-1.6	-1.94

Variant	cAMP reporter score ([1]; pH 5.5)	cAMP reporter score ([1]; pH 6)	cAMP reporter score ([1]; pH 6, modulator: ogerin)	cAMP reporter score ([1]; pH 6.5, modulator: ogerin)	surface expression score [2]
A281_P283del	-1.29	-1.03	–	0.169	-2.61
D282A	-0.76	-0.449	-1.16	-0.755	1.82
D282C	0.194	-0.13	-0.506	-0.795	2.32
D282E	-1.61	-0.886	-1.75	-1.44	-0.524
D282F	-1.17	-0.644	-1.6	-1.24	1.46
D282G	-1.22	-0.564	-0.947	-0.935	0.863
D282H	-1.29	-1.02	-1.08	-1.21	1.47
D282I	-1.6	-0.99	-1.54	-1.26	1.13
D282K	-1.08	-0.393	-1.25	-0.2	2.87
D282L	-0.654	-1.21	-1.39	-1.19	1.7
D282M	-1.02	-0.593	-1.05	-1.02	1.43
D282N	-0.422	–	–	-0.36	–
D282P	-1.51	-0.298	-1.12	-0.007	2.12
D282Q	-1.28	-0.541	-1.59	-0.908	1.63
D282R	-0.9	-0.724	-0.73	-1.69	0.458
D282S	-0.559	0.237	-0.023	0.074	1.66
D282T	0.892	0.407	0.319	-0.136	3.7
D282V	-0.999	-0.336	-1.61	-1.26	1.53
D282W	-0.632	-0.145	-0.51	-0.785	2.65
D282Y	-0.782	-0.498	-0.822	-2.2	–
D282_P283insGS	-1.34	–	-1.07	-2.52	-2.82

Variant	cAMP reporter score ([1]; pH 5.5)	cAMP reporter score ([1]; pH 6)	cAMP reporter score ([1]; pH 6, modulator: ogerin)	cAMP reporter score ([1]; pH 6.5, modulator: ogerin)	surface expression score [2]
D282_V284del	-2.13	-1.1	-1.59	-0.901	-2.58
P283del	-1.81	-0.817	-1.91	-0.755	-2.78
V284_L285del	-0.521	-0.555	-1.37	-0.764	-1.55
V284_Y286del	-0.842	-0.691	-0.965	-0.742	-2.35
V284del	-1.49	-1.32	-1.19	-0.534	-2.7
L285_C287del	-1.54	-1.35	-1.62	-1.24	-2.13
L285_Y286insG	-1.31	-1.24	-2.06	-1.39	0.521
L285_Y286insGS	-1.34	-1.27	-1.48	-1.36	-1.83
Y286_C287insGS	-0.65	-0.556	-1.06	-1.17	–
C287A	0.143	-0.499	-0.738	-0.656	0.378
C287D	-1.4	-1.81	-1.4	-0.731	-1.63
C287E	0.118	0.257	-0.47	-1.09	-1.54
C287F	-0.918	0.304	-1.34	-0.815	-0.025
C287G	-0.898	-1.34	-1.21	-0.927	-1.24
C287H	0.237	0.451	-1.14	-0.685	-0.562
C287I	-0.194	-0.597	-0.566	-0.594	0.873
C287K	-0.874	-1.19	-1.37	-0.713	-1.07
C287M	-0.946	–	-0.926	-1.26	-0.035
C287N	-0.143	-0.512	-0.584	-0.82	-1.44
C287P	-1.56	-0.831	-1.49	-1.28	-1.73
